Results reported in the supplement of paper PMC8728848.
The list shows a part of the results.

Key:
Assay in all cases: glycan array binding signal (z-score within array); higher = stronger binding
Settings in all cases: glycan notation: IUPAC condensed, linker removed
[1] = target: Gal3S(b1-4)[Fuc(a1-3)]Glc6S
Summary of the method: (§1)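 From the Consortium for Functional Glycomics database, 3228 arrays were curated, keeping only those whose protein sequence was available. Binding is given as a within-array Z-score averaged across arrays sharing a protein sequence and across linkers. Negative Z-scores can be read as non-binding.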

[2] = target: Gal3S4S(b1-4)GlcNAc
Summary of the method: as §1

[3] = target: Gal3S6S(b1-4)GlcNAc
Summary of the method: as §1

[4] = target: Gal3S6S(b1-4)GlcNAc6S
Summary of the method: as §1

[5] = target: Gal4S(b1-4)GlcNAc
Summary of the method: as §1

[6] = target: Gal4S6S(b1-4)GlcNAc
Summary of the method: as §1

[7] = target: Gal6P(b1-4)GlcNAc
Summary of the method: as §1

[8] = target: Gal6S(b1-3)GlcNAc
Summary of the method: as §1

[9] = target: Gal6S(b1-3)GlcNAc6S
Summary of the method: as §1

[10] = target: Gal6S(b1-4)Glc
Summary of the method: as §1

[11] = target: Gal6S(b1-4)Glc6S
Summary of the method: as §1

[12] = target: Gal6S(b1-4)GlcNAc
Summary of the method: as §1

[13] = target: Gal6S(b1-4)GlcNAc6S
Summary of the method: as §1

[14] = target: GalNAc(a1-3)Gal
Summary of the method: as §1

[15] = target: GalNAc(a1-3)GalNAc
Summary of the method: as §1

[16] = target: GalNAc(a1-3)GalNAc(a1-3)Gal(a1-4)Gal(b1-4)GlcNAc
Summary of the method: as §1

[17] = target: GalNAc(a1-3)GalNAc(b1-3)Gal(a1-4)Gal(b1-4)Glc
Summary of the method: as §1

[18] = target: GalNAc(a1-3)GalNAc(b1-3)Gal(a1-4)Gal(b1-4)GlcNAc
Summary of the method: as §1

[19] = target: GalNAc(b1-3)Gal
Summary of the method: as §1

[20] = target: GalNAc(b1-3)Gal(a1-4)Gal(b1-4)GlcNAc
Summary of the method: as §1

[21] = target: GalNAc(b1-3)Gal(a1-4)Gal(b1-4)GlcNAc(b1-3)Gal(b1-4)Glc
Summary of the method: as §1

[22] = target: GalNAc(b1-3)Gal(a1-6)Gal(b1-4)Glc
Summary of the method: as §1

[23] = target: GalNAc(b1-3)GalNAc
Summary of the method: as §1

[24] = target: GalNAc(b1-4)Gal(b1-4)Glc
Summary of the method: as §1

[25] = target: GalNAc(b1-4)GlcNAc
Summary of the method: as §1

[26] = target: GalNAc(b1-4)GlcNAc(b1-2)Man(a1-3)[GalNAc(b1-4)GlcNAc(b1-2)Man(a1-6)]Man(b1-4)GlcNAc(b1-4)GlcNAc
Summary of the method: as §1

[27] = target: GalNAc(b1-4)GlcNAc6S
Summary of the method: as §1

[28] = target: GalNAc(b1-6)GalNAc
Summary of the method: as §1

[29] = target: GalNAc3S(b1-4)GlcNAc
Summary of the method: as §1

[30] = target: GalNAc3S(b1-4)GlcNAc3S
Summary of the method: as §1

[31] = target: GalNAc4S6S(b1-4)GlcNAc
Summary of the method: as §1

[32] = target: GalNAc6S(b1-4)GlcNAc
Summary of the method: as §1

[33] = target: Glc(a1-4)Glc
Summary of the method: as §1

[34] = target: Glc(a1-4)Glc(a1-4)Glc(a1-4)Glc
Summary of the method: as §1

[35] = target: Glc(a1-6)Glc(a1-6)Glc
Summary of the method: as §1

[36] = target: Glc(a1-6)Glc(a1-6)Glc(a1-6)Glc
Summary of the method: as §1

[37] = target: Glc(b1-4)Glc
Summary of the method: as §1

[38] = target: Glc(b1-6)Glc
Summary of the method: as §1

[39] = target: GlcA(b1-3)Gal
Summary of the method: as §1

[40] = target: GlcA(b1-3)GlcNAc
Summary of the method: as §1

[41] = target: GlcA(b1-6)Gal
Summary of the method: as §1

[42] = target: GlcNAc(a1-3)Gal(b1-4)GlcNAc
Summary of the method: as §1

[43] = target: GlcNAc(a1-4)Gal(b1-3)GlcNAc
Summary of the method: as §1

[44] = target: GlcNAc(a1-4)Gal(b1-4)GalNAc
Summary of the method: as §1

[45] = target: GlcNAc(a1-4)Gal(b1-4)GlcNAc
Summary of the method: as §1

B1: RVL (Remusatia vivipara), B5LYJ9 (protein)
chain: MAKLLLFLLPAILGLLVPRSAVALGTNYLLSGQTLDTEGHLKNGDFDLVMQDDCNLVLYNGNWQSNTANNGRDCKLTLTDYGELVIKNGDGSTVWKSGAQSVKGNYAAVVHPDGRLVVLGPSVFKIDPWVRGLNSLRFRNIPFTNNLLFSGQVLYGDGRLTAKNHQLVMQGDCNLVLYGGKYGWQSNTHGNGEHCFLRLNHKGELIIKDDDFKTIWSSRSSSKQGEYVLILQDDGFGVIYGPAIFETSSKRSIAAS
glycan array binding signal (z-score) [1]: -0.239 | glycan array binding signal (z-score) [2]: -0.017 | glycan array binding signal (z-score) [3]: -0.163 | glycan array binding signal (z-score) [4]: -0.316 | glycan array binding signal (z-score) [5]: -0.249 | glycan array binding signal (z-score) [6]: -0.177 | glycan array binding signal (z-score) [7]: -0.218 | glycan array binding signal (z-score) [8]: -0.046 | glycan array binding signal (z-score) [9]: 0.134 | glycan array binding signal (z-score) [10]: -0.118 | glycan array binding signal (z-score) [11]: -0.102 | glycan array binding signal (z-score) [12]: -0.03 | glycan array binding signal (z-score) [13]: 0.058 | glycan array binding signal (z-score) [14]: -0.205 | glycan array binding signal (z-score) [15]: -0.132 | glycan array binding signal (z-score) [16]: -0.126 | glycan array binding signal (z-score) [17]: -0.233 | glycan array binding signal (z-score) [18]: -0.305 | glycan array binding signal (z-score) [19]: -0.075 | glycan array binding signal (z-score) [20]: -0.084 | glycan array binding signal (z-score) [21]: -0.066 | glycan array binding signal (z-score) [22]: -0.17 | glycan array binding signal (z-score) [23]: -0.338 | glycan array binding signal (z-score) [24]: 0.013 | glycan array binding signal (z-score) [25]: -0.219 | glycan array binding signal (z-score) [26]: -0.371 | glycan array binding signal (z-score) [27]: -0.19 | glycan array binding signal (z-score) [28]: -0.006 | glycan array binding signal (z-score) [29]: -0.139 | glycan array binding signal (z-score) [30]: 0.264 | glycan array binding signal (z-score) [31]: -0.406 | glycan array binding signal (z-score) [32]: -0.261 | glycan array binding signal (z-score) [33]: -0.087 | glycan array binding signal (z-score) [34]: -0.009 | glycan array binding signal (z-score) [35]: -0.193 | glycan array binding signal (z-score) [36]: -0.096 | glycan array binding signal (z-score) [37]: 0.059 | glycan array binding signal (z-score) [38]: -0.243 | glycan array binding signal (z-score) [39]: -0.177 | glycan array binding signal (z-score) [40]: -0.098 | glycan array binding signal (z-score) [41]: -0.23 | glycan array binding signal (z-score) [42]: -0.202 | glycan array binding signal (z-score) [43]: -0.171 | glycan array binding signal (z-score) [44]: -0.084 | glycan array binding signal (z-score) [45]: 0.014
